Data on 172 sequences can be found in paper PMC4242493.

This is one part of the list. The list includes weakly bound sequences.

The experiment has as its target MaxL homodimer (UniProt P61244). Briefly: universal protein-binding microarray (PBM). Particulars: PBS-based mixture, 10 nM His-tagged protein dimer, 2% milk, 200 ng/uL BSA, 50 ng/uL salmon testes DNA, 0.02% TX-100; detection with Alexa 488 anti-His …; high values mean tight binding; most listed sequences are background and not binding sites; double strand, one strand shown.
Sequence of UniProt P61244 (P61244 whole entry): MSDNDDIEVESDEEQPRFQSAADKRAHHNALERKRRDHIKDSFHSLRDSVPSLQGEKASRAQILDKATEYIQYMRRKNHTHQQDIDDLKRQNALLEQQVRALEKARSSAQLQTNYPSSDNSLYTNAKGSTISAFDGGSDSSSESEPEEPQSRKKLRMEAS
On to GCACGGTA, for which the binding signal (normalized occupancy) came out at 0.0784.
On to CTTGGCGA, for which the binding signal (normalized occupancy) was 0.0734.
As for AAACGAGG, the figure is 0.081; as for ATTTGATG, 0.0782.
As for AAGAAGGG, the figure is 0.081; as for ATCAATGC, 0.08.
Then CATGTGAA, with 0.127.
AAGATTTA: the binding signal (normalized occupancy) turned out to be 0.075.
Then CCCACCGA, with 0.0729.
As for AGATCACA, the figure is 0.0817; as for ACGCAGTA, 0.0714; as for ACTGAGTC, 0.0721.
Then GAGCATCA, with 0.0734; and GTCGCCGA, with 0.0777.
On to CGCATGTA, for which the binding signal (normalized occupancy) came out at 0.105.
Consider ATTCAAAC, for which the binding signal (normalized occupancy) is 0.0775.
Then AAATCATA, with 0.0772; and ATGAATCA, with 0.0807; and ACGCGTAC, with 0.0805.
Take ACGTACAA: the binding signal (normalized occupancy) turned out to be 0.075.
Then CGCTGAAA, with 0.0703.
For the sequence CTTATCCC, the binding signal (normalized occupancy) came to 0.0759.
Then ATTGAAAG, with 0.0771.
Consider CATGGTAA, for which the binding signal (normalized occupancy) was determined as 0.0939.
As for CCTCAAAA, the figure is 0.0747; as for AGGGGTAA, 0.0789; as for CCCATGTC, 0.0854.
As for AGGGGCCG, the figure is 0.0755; as for GATGCGGC, 0.0788.
Then AGAGTCAT, with 0.0809; and AAATCAAC, with 0.0734.
Consider CAGATGTA, for which the binding signal (normalized occupancy) is 0.0828.
Then ACATTTAG, with 0.0818; and AGGATGTG, with 0.0831.
Then AGGGTTCC, with 0.0694; and AACTTAGT, with 0.0719.
Turning to TGCGGCCA, the binding signal (normalized occupancy) came out at 0.0788.
As for ATAAGGGC, the binding signal (normalized occupancy) is 0.0746.
For ACTATATA, the binding signal (normalized occupancy) amounted to 0.0884.
CTGATCGA: the binding signal (normalized occupancy) came to 0.0724.
Take AGTGGTAG: the binding signal (normalized occupancy) is 0.0787.
On to AATAAAGA, for which the binding signal (normalized occupancy) is 0.0762.
As for CTCGCCCA, the figure is 0.0695.
Then CTAGAGTC, with 0.0717; and AATGTCGA, with 0.0807; and CACAAGCA, with 0.0756.
Consider GGCGATCA, for which the binding signal (normalized occupancy) was found to be 0.0766.
CTGTCCAC: the binding signal (normalized occupancy) was determined as 0.0845.
Turning to GCGACGAA, the binding signal (normalized occupancy) turned out to be 0.0665.
For the sequence GGTGGTAC, the binding signal (normalized occupancy) amounted to 0.0783.
Then GGGTGCAC, with 0.0786; and GATACTCC, with 0.0769; and CCCCGCGA, with 0.076.
For the sequence GGTCTCAC, the binding signal (normalized occupancy) came to 0.077.
Then GCAATTAA, with 0.0692; and GCAGGCCA, with 0.0703.
As for GAGTTCCA, the figure is 0.0715; as for GTTGGGAA, 0.0772.
Then ACTTCGAG, with 0.0692; and GAGGACAA, with 0.074.
Regarding GGCGCTGA, the binding signal (normalized occupancy) stood at 0.0707.
As for CCCCCCCG, the figure is 0.0865; as for AGAATTTG, 0.0688; as for CATTCCGA, 0.0764.
Consider CCGGTGAC, for which the binding signal (normalized occupancy) worked out at 0.0707.
Then GGTTAAGA, with 0.0768; and CAACGGAA, with 0.0746.
As for CGAGAACG, the figure is 0.0741.
For CGTCGCGC, the binding signal (normalized occupancy) turned out to be 0.0713.
As for AATTAAGA, the figure is 0.076.
As for CGTAGCCA, the figure is 0.0736; as for CCCTTAGG, 0.0675.
For the sequence CCCGTGAG, the binding signal (normalized occupancy) was determined as 0.0759.
Then ATGCTGTA, with 0.0898; and ACGAACAG, with 0.0753.
As for AATGCCTC, the figure is 0.0826; as for ATAACGCC, 0.0792.
With AAGTTACG, the binding signal (normalized occupancy) turned out to be 0.0689.
Then CCCTCGCG, with 0.0809.
Then AACGAGGG, with 0.0775.
Then CGACGAGA, with 0.0718; and CATTTCTC, with 0.0744; and AGCCTGAC, with 0.074.
For CCTATGCC, the binding signal (normalized occupancy) worked out at 0.0801.
On to AGCACTTG, for which the binding signal (normalized occupancy) was 0.071.
As for CCGTAGTC, the binding signal (normalized occupancy) stood at 0.0763.
Regarding CCCTTCTC, the binding signal (normalized occupancy) worked out at 0.0709.
As for ACTAAGTC, the binding signal (normalized occupancy) amounted to 0.0734.
Then ATAACAAA, with 0.0738; and CGGAGCCC, with 0.0657.
As for ATGACCAC, the figure is 0.0824.
GCTTTTGA: the binding signal (normalized occupancy) was found to be 0.0743.
Then CCTGCCTC, with 0.0718; and ACCACCGA, with 0.0791; and CTTTTGCC, with 0.0729.
Then GTCCTATA, with 0.0791.
Turning to ACGGACCG, the binding signal (normalized occupancy) was found to be 0.0664.
As for TACGTATA, the binding signal (normalized occupancy) came out at 0.0771.
Consider AGTTCCGA, for which the binding signal (normalized occupancy) turned out to be 0.0673.
Take GCGTAAAC: the binding signal (normalized occupancy) came to 0.0733.
As for AAACCCGT, the figure is 0.0773.
As for CCATCGAC, the figure is 0.0722.
Then ATGCAGCC, with 0.0825; and CGCGATCA, with 0.0805.
TTAGTAAA: the binding signal (normalized occupancy) is 0.0726.
As to GCCCGCCC, the binding signal (normalized occupancy) came to 0.0728.
Turning to ACTCTTCC, the binding signal (normalized occupancy) turned out to be 0.0739.
As for CTAGCGTC, the figure is 0.0721.
Then GGGCAAGA, with 0.0727.
In the case of ACTTATGC, the binding signal (normalized occupancy) is 0.0788.
Then ACTCCGAA, with 0.0702; and CCACGTCA, with 0.0906.
As for CTATTACC, the figure is 0.0759.
In the case of ATAACGTC, the binding signal (normalized occupancy) is 0.0773.
For AGGGCACG, the binding signal (normalized occupancy) was 0.0865.
Then GTGGGCGA, with 0.0773; and CTGACGAA, with 0.072.
Then AGAAGAGC, with 0.071.
For the sequence AAGTAAAA, the binding signal (normalized occupancy) amounted to 0.0699.
CCGTCGAA: the binding signal (normalized occupancy) worked out at 0.0686.
As for ACTGTAGC, the figure is 0.0692.
For AAGAGGCA, the binding signal (normalized occupancy) turned out to be 0.0761.
Then TGGAAAAA, with 0.0791.
As for AGAGGTTC, the figure is 0.0758; as for ATCTGAGA, 0.0757.
As to ACAACCGA, the binding signal (normalized occupancy) is 0.0733.
With CTCATGTC, the binding signal (normalized occupancy) was 0.0928.
As for TGATAAAA, the figure is 0.0788; as for GCCGTGAA, 0.0733; as for CAATAATA, 0.0803.
As for ATCATTTA, the figure is 0.078; as for AAAATATG, 0.0812.
Regarding ATAAGTAA, the binding signal (normalized occupancy) was 0.0793.
As for CGTCAGAA, the figure is 0.0764; as for GGGTCATA, 0.0814.
As for GCGAGTAA, the binding signal (normalized occupancy) was found to be 0.073.
Then ACGGCTCG, with 0.069; and GGGGCACC, with 0.0727.
As for CTTATAAA, the figure is 0.0807; as for AGGAACCG, 0.0686.
Turning to CAGACTAC, the binding signal (normalized occupancy) turned out to be 0.0675.
Then GCGGGTGA, with 0.072; and AATAGACG, with 0.0743.
As for CCGCAAAG, the figure is 0.0657; as for AGGGCAAA, 0.0699; as for GCTAGGGA, 0.0712.
Then CGTCCATC, with 0.0756.
Take CTACTAAA: the binding signal (normalized occupancy) stood at 0.0745.
Then CGACCGCA, with 0.0742; and AGTCCCTA, with 0.0701; and TGGTAGAA, with 0.0712.
As for AAGAAGAG, the figure is 0.0769; as for CACGATCG, 0.0793.
Then CCTATTAG, with 0.0744; and CCCGCTGC, with 0.0756; and ATTTGCCC, with 0.0735.
In the case of AGCCTAGC, the binding signal (normalized occupancy) was found to be 0.0688.
For ACCTCACC, the binding signal (normalized occupancy) was determined as 0.0796.
For the sequence ATGGAAAC, the binding signal (normalized occupancy) was 0.0803.
As for GCCGATAC, the figure is 0.0771.
As for GCGACTAC, the figure is 0.0718; as for AGGCAGGA, 0.0745.
As for AAGCCGGC, the figure is 0.0687; as for AAGACTTC, 0.0738.
As to TGACCGCA, the binding signal (normalized occupancy) was determined as 0.0775.
For ATTTGTAC, the binding signal (normalized occupancy) came out at 0.0801.
Then GTTGCGTA, with 0.0775; and CGGATATC, with 0.0792.
With ACACCTGA, the binding signal (normalized occupancy) came out at 0.0871.
Consider AATGACAG, for which the binding signal (normalized occupancy) is 0.0744.
On to AAACAATC, for which the binding signal (normalized occupancy) is 0.0716.
As for CGAGTGTA, the figure is 0.082.
